IC50 is the fitted dose that halves viability relative to control wells, and lower means more sensitive; a limit (>, <) means that the fit lies beyond the doses tested. For AUC the same curve is integrated over the 256-fold range of doses and scaled to a fraction; it is 1 without any effect and falls as sensitivity rises. For some of these results: The top dose, if marked as inferred, is not printed in the source and was worked back from the curve model. For some of these results: An entry number marks a drug with two screens in the source, which often give different values.
Experiments:
Test in all cases: Viability of human cancer cell lines after 72 h of drug (GDSC screen)
NSC-87877 = compound: O=S(=O)(O)c1ccc2cc(N=Nc3cc(S(=O)(=O)O)c4cccnc4c3O)ccc2c1 [NSC-87877]; details: top dose 16 µM; top dose inferred
Experimental: (§1)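 Human cancer cell lines in 384-well plates, medium with 10% serum, drug for 72 h over a 256-fold dose range (nine 2-fold or five 4-fold steps up to the top dose). Adherent lines were fixed and stained with the nucleic acid dye Syto60, suspension lines read with resazurin; signal relative to control wells, capped at 0 and 100%. One two-parameter sigmoid per drug and line, fitted in a mixed model over all curves with the slope shared within a line.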

LAQ824 = compound: O=C(/C=C/c1ccc(CN(CCO)CCc2c[nH]c3ccccc23)cc1)NO [LAQ824]; details: top dose 1.024 µM; top dose inferred
Experimental: as §1

Masitinib = compound: Cc1ccc(NC(=O)c2ccc(CN3CCN(C)CC3)cc2)cc1Nc1nc(-c2cccnc2)cs1 [Masitinib]; details: top dose 20 µM
Experimental: as §1

OSI-930 = compound: O=C(Nc1ccc(OC(F)(F)F)cc1)c1sccc1NCc1ccnc2ccccc12 [OSI-930]; details: top dose 10.24 µM
Experimental: as §1

BX-912 = compound: O=C(Nc1cccc(Nc2ncc(Br)c(NCCc3cnc[nH]3)n2)c1)N1CCCC1 [BX-912]; details: top dose 10.24 µM; top dose inferred
Experimental: as §1

Tamoxifen = compound: CC/C(=C(\c1ccccc1)c1ccc(OCCN(C)C)cc1)c1ccccc1 [Tamoxifen]; details: top dose 5 µM
Experimental: as §1

VNLG/124 = compound: CCCC(=O)OCc1ccc(OC(=O)/C=C(C)/C=C/C=C(C)/C=C/C2=C(C)CCCC2(C)C)cc1 [VNLG/124]; details: top dose 5.12 µM; top dose inferred
Experimental: as §1

HG-5-88-01 = compound: COc1cc(N2CCC(C(N)=O)CC2)ccc1Nc1nc(N)c(Cl)c(Nc2ccccc2S(=O)(=O)C(C)C)n1 [HG-5-88-01]; details: top dose 10 µM; top dose inferred
Experimental: as §1

Bleomycin = compound: Cc1c(N)nc([C@H](CC(N)=O)NC[C@H](N)C(N)=O)nc1C(=O)N[C@H](C(=O)N[C@H](C)[C@@H](O)[C@H](C)C(=O)N[C@H](C(=O)NCCc1nc(-c2nc(C(=O)NCCC[S+](C)C)cs2)cs1)[C@@H](C)O)[C@@H](OC1OC(CO)C(O)C(O)C1OC1OC(CO)C(O)C(OC(N)=O)C1O)c1cnc[nH]1 [Bleomycin]
Experimental: as §1

Elesclomol = compound: CN(NC(=O)CC(=O)NN(C)C(=S)c1ccccc1)C(=S)c1ccccc1 [Elesclomol]; details: top dose 0.2 µM; top dose inferred
Experimental: as §1

[1] = top dose 64 µM, screen: GDSC drug entry 190
[2] = top dose 50 µM, screen: GDSC drug entry 1378, top dose inferred

Row | Cell Line | AUC (NSC-87877) | IC50 (NSC-87877) | AUC (LAQ824) | IC50 (LAQ824) | AUC (Masitinib) | IC50 (Masitinib) | AUC (OSI-930) | IC50 (OSI-930) | AUC (BX-912) | IC50 (BX-912) | AUC (Tamoxifen) | IC50 (Tamoxifen) | AUC (VNLG/124) | IC50 (VNLG/124) | AUC (HG-5-88-01) | IC50 (HG-5-88-01) | AUC (Bleomycin; [1]) | IC50 (Bleomycin; [1]) | AUC (Elesclomol) | IC50 (Elesclomol) | AUC (Bleomycin; [2]) | IC50 (Bleomycin; [2])
1 | TMK-1 (stomach, adherent) | 0.986 | > 16 µM | 0.416 | 0.0371 µM | 0.969 | > 20 µM | 0.974 | > 10.2 µM | 0.98 | > 10.2 µM | 0.984 | > 5 µM | 0.982 | > 5.12 µM | 0.938 | > 10 µM | 0.377 | 1.79 µM | 0.61 | 0.0255 µM |  | 
2 | NCI-H1304 (small cell lung carcinoma, suspension) | 0.973 | > 16 µM | 0.539 | 0.0827 µM | 0.923 | > 20 µM | 0.971 | > 10.2 µM | 0.665 | 1.92 µM | 0.974 | > 5 µM | 0.985 | > 5.12 µM | 0.902 | > 10 µM | 0.533 | 4.94 µM | 0.492 | 0.0118 µM | 0.719 | 13.8 µM
3 | NB6 (neuroblastoma, adherent) | 0.839 | 14.7 µM | 0.483 | 0.0569 µM | 0.87 | > 20 µM | 0.984 | > 10.2 µM | 0.838 | 9.31 µM | 0.982 | > 5 µM | 0.814 | 3.61 µM | 0.982 | > 10 µM | 0.896 | > 64 µM | 0.81 | 0.137 µM | 0.974 | > 50 µM
4 | H2461 (mesothelioma, adherent) | 0.977 | > 16 µM | 0.487 | 0.0586 µM | 0.983 | > 20 µM | 0.972 | > 10.2 µM | 0.968 | > 10.2 µM | 0.977 | > 5 µM | 0.97 | > 5.12 µM | 0.94 | > 10 µM | 0.224 | 0.496 µM | 0.365 | 0.00482 µM | 0.571 | 5.14 µM
5 | EW-24 (Ewing sarcoma, semi-adherent) | 0.983 | > 16 µM | 0.864 | 0.721 µM | 0.929 | > 20 µM | 0.976 | > 10.2 µM | 0.993 | > 10.2 µM | 0.991 | > 5 µM | 0.987 | > 5.12 µM | 0.883 | 8.49 µM | 0.892 | 59.6 µM | 0.973 | > 0.2 µM | 0.786 | 18.9 µM
6 | JEG-3 (urogenital system, adherent) | 0.95 | > 16 µM | 0.368 | 0.0289 µM | 0.919 | > 20 µM | 0.974 | > 10.2 µM | 0.991 | > 10.2 µM | 0.989 | > 5 µM | 0.972 | > 5.12 µM | 0.974 | > 10 µM | 0.612 | 7.85 µM | 0.505 | 0.0129 µM | 0.273 | 0.766 µM
7 | EW-7 (Ewing sarcoma, semi-adherent) | 0.99 | > 16 µM | 0.369 | 0.0293 µM | 0.857 | 13.2 µM | 0.929 | > 10.2 µM | 0.727 | 2.56 µM | 0.973 | > 5 µM | 0.896 | 4.94 µM | 0.725 | 2.47 µM | 0.489 | 3.76 µM | 0.932 | > 0.2 µM | 0.458 | 2.44 µM
8 | EFM-192A (breast, adherent) | 0.985 | > 16 µM | 0.391 | 0.031 µM | 0.981 | > 20 µM | 0.974 | > 10.2 µM | 0.958 | > 10.2 µM | 0.961 | > 5 µM | 0.973 | > 5.12 µM | 0.984 | > 10 µM | 0.107 | < 0.25 µM | 0.906 | > 0.2 µM | 0.982 | > 50 µM
9 | ONS-76 (medulloblastoma, adherent) | 0.984 | > 16 µM | 0.456 | 0.048 µM | 0.831 | 14 µM | 0.97 | > 10.2 µM | 0.87 | > 10.2 µM | 0.982 | > 5 µM | 0.978 | > 5.12 µM | 0.959 | > 10 µM | 0.325 | 1.24 µM | 0.48 | 0.0109 µM | 0.241 | 0.519 µM
10 | WM1552C (melanoma, adherent) | 0.984 | > 16 µM | 0.549 | 0.0869 µM | 0.876 | > 20 µM | 0.963 | > 10.2 µM | 0.922 | > 10.2 µM | 0.986 | > 5 µM | 0.967 | > 5.12 µM | 0.969 | > 10 µM | 0.185 | 0.453 µM | 0.881 | > 0.2 µM | 0.768 | 18.8 µM
11 | RPMI-7951 (melanoma, adherent) | 0.963 | > 16 µM | 0.456 | 0.0488 µM | 0.837 | 12.8 µM | 0.931 | > 10.2 µM | 0.879 | 9.92 µM | 0.986 | > 5 µM | 0.961 | > 5.12 µM | 0.945 | > 10 µM | 0.393 | 2.06 µM | 0.673 | 0.0373 µM | 0.448 | 2.27 µM
12 | NMC-G1 (glioma, adherent) | 0.978 | > 16 µM | 0.517 | 0.0721 µM | 0.849 | > 20 µM | 0.974 | > 10.2 µM | 0.901 | > 10.2 µM | 0.961 | > 5 µM | 0.973 | > 5.12 µM | 0.819 | 7.4 µM | 0.109 | < 0.25 µM | 0.584 | 0.0224 µM | 0.154 | 0.196 µM
